Measurements published in PubChem BioAssay AID686970 (National Center for Advancing Translational Sciences (NCATS), 2013).
Hit rate of the full screen: of about 360,000 compounds, about 6,000 (1.7%) were called active. The shares of active, inactive and inconclusive entries below differ from those in the screen. Calls come from the whole dose curve; as a rule, active = well fitted cell-killing curve with a large enough effect; inconclusive = small, poorly fitted or top-dose-only effect, or effect the other way; inactive = flat fitted curve, though single readings scatter. Potencies of inconclusive entries are left out as doubtful fits.

Test: qHTS for induction of synthetic lethality in tumor cells producing 2HG: qHTS for the HT-1080-NT fibrosarcoma cell line;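 note: NT is the 2HG producing partner of a matched IDH1 knockdown line; nearly all actives have a fitted effect of over 55% in size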;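 for activity, negative = less viability: 0% = DMSO-treated cells and -100% = media-only wells without cells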
Conditions: HT-1080-NT fibrosarcoma viability, CellTiter-Glo ATP luminescence, 48 h; activity, negative = less viability: at 46.1 µM (top of the series) unless noted
Method in brief: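 Toxicity toward the 2HG-producing NT line was scored as %Activity, normalised to DMSO and no-cell wells, from CellTiter-Glo luminescence after 48 hours' treatment.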
Potency is the fitted concentration of half-maximal effect; tags give direction and shape of the fitted curve.

Row | Compound | Potency | activity, negative = less viability
1 | COc1ccc(CCNc2nc(-c3cccnc3)nc3ccccc23)cc1OC | inconclusive [cytotoxic, partial curve] | 
2 | COCCCN(C(=S)Nc1cc(Cl)cc(Cl)c1)C(C)c1ccccn1 (stereo not given) | inconclusive [cytotoxic, single point] | 
3 | O=C(c1ccc(Cl)cc1)N1CCN(CCc2ccccn2)CC1 | inactive | 
4 | COc1cc(Br)cc(/C=N/c2ncn[nH]2)c1O | inconclusive [cytotoxic, single point] | 
5 | O=C1Oc2ccccc2C(=O)/C1=C\N1CCN(c2ccccc2)CC1 | inconclusive [cytotoxic, partial curve] | 
6 | Cc1cc(NC(=O)Cn2cnc3sc(C)c(C)c3c2=O)no1 | inactive | 
7 | N#Cc1ccc(-c2ccc(F)cc2)nc1Oc1ccccc1 | inconclusive [cytotoxic, single point] | 
8 | COC(=O)c1c(NC(=O)COC(=O)[C@@H](NS(=O)(=O)c2cccc(Cl)c2)C(C)C)sc2c1CCC2 | inactive | 
9 | Cc1ccc(O)c(-c2cc(-c3ccccc3F)[nH]n2)c1 | active: 23.1 µM | 
10 | O=C(Nc1ccc2ccccc2c1)C(c1ccc(C(F)(F)F)cc1)n1c(=O)c(-c2cc3ccccc3[nH]2)nc2ccccc21 (stereo not given) | inconclusive [cytotoxic, single point] | 
11 | COc1ccccc1NC(=O)CN1CCN(CC(=O)Nc2ccc(Cl)c(C(F)(F)F)c2)CC1 | inconclusive [cytotoxic, single point] | 
12 | Cc1nn(Cc2cccc(F)c2)c(C)c1NC(=O)c1ccc(COc2ccccc2Cl)cc1 | active: 2 µM | 
13 | c1ccc(Cn2c3ccccc3c3nnc(SCCN4CCCCC4)nc32)cc1 | inactive | 
14 | COC(=O)c1ccc(NC(=S)NC2CCCCC2)cc1 | inconclusive [cytotoxic, single point] | 
15 | COc1cc2c(cc1NC(=S)NC(=O)/C=C/c1ccco1)oc1ccccc12 |  | inconclusive: 30.2%
16 | COCCNC(=O)c1csc(Nc2cccc3ccccc23)n1 |  | inconclusive: 9.66%
17 | CCN1C(c2ccc(F)cc2)=CS/C1=C(/C#N)c1nnc2n1-c1ccccc1SC2 | inactive | 
18 | c1ccc(CNc2nc3ccccc3[nH]2)cc1 | inconclusive [cytotoxic, single point] | 
19 | O=C1CCCC2=C1C(c1ccncc1)c1c(nc(SCc3ccccc3Cl)[nH]c1=O)N2 (stereo not given) | inconclusive [cytotoxic, partial curve] | 
20 | CSc1ccc(OC2CCCCC2NS(=O)(=O)c2ccc(Cl)cc2)cc1 (stereo not given) | inconclusive [cytotoxic, single point] | 
21 | CCOc1ccc(OCc2ccc(C(=O)NN=Cc3ccc[nH]3)cc2)cc1 | active: 0.651 µM | 
22 | CC(C)(C)c1ccc(OCCCC(=O)NNC(=O)c2ccccc2O)cc1 | inconclusive [cytotoxic, single point] | 
23 | O=C1CC(c2cccs2)Cc2nc(NC(=O)C3CC3)ncc21 (stereo not given) | inactive | 

Row | Compound | Potency | activity, negative = less viability
24 | COc1ccccc1CCn1cnc(C)c1CC(C)C | inconclusive [cytotoxic, single point] | 
25 | O=C1Nc2ccccc2N=C(c2ccc3c(c2)OCO3)C1N(C(=O)c1ccc2ccccc2c1)C1CC1 (stereo not given) | inconclusive [cytotoxic, single point] | 
26 | O=C(Nc1cccc(-c2nc3ncccc3o2)c1)c1ccco1 | inconclusive [rising, full curve, poor fit] | 
27 | c1ccc2c(c1)oc1c(Nc3ccc(CN4CCOCC4)cc3)ncnc12 | inconclusive [cytotoxic, single point] | 
28 | Cc1ccc2nc(N(CCCN(C)C)C(=O)c3ccc(S(=O)(=O)N4CCCCCC4)cc3)sc2c1 | inconclusive [cytotoxic, single point] | 
29 | CC(=O)Oc1ccc(N2C(=O)C3C(C2=O)C(C(=O)c2ccc(Cl)cc2)N2CCCC32)cc1 (stereo not given) | inconclusive [cytotoxic, single point] | 
30 | O=S(=O)([N-]c1nc2ccccc2nc1-[n+]1ccc(Cc2ccccc2)cc1)c1ccc(Br)s1 | active: 14.6 µM | 
31 | Cc1ccc(OCCN2C(=O)c3ccccc3C2=O)c([N+](=O)[O-])c1 | inconclusive [rising, single point] | 
32 | COc1cccc(C(=O)Nc2ccccc2C(=O)NC2CC2)c1 | inactive | 
33 | CC1CCN(CCCNC(=O)c2ccc(CS(=O)(=O)Cc3ccc(Cl)cc3)o2)CC1 | inactive | 
34 | C=CC[C@@H](CC(=O)N(CCO)Cc1ccccc1)C(=O)N[C@@H](COC(=O)[C@@H](CC=C)CC(=O)OC(C)(C)C)Cc1c[nH]c2ccccc12 | inconclusive [cytotoxic, single point] | 
35 | COc1ccc(NC(=O)Cn2nnc(C(=O)NCc3cccs3)c2N)cc1 | inconclusive [cytotoxic, single point] | 
36 | O=C(NC1CCN(Cc2nnnn2CCc2ccccc2)CC1)c1ccccc1F | inactive | 
37 | COc1ccc(C2Oc3ccccc3C3=C2C(c2cccs2)n2ncnc2N3)cc1 (stereo not given) | inconclusive [cytotoxic, partial curve] | 
38 | CCc1ccc(CN2CCC(CO)(CC3CCCCO3)CC2)o1 (stereo not given) | inactive | 
39 | O=C(NCc1cccnc1)c1cc(C2CCCCN2C(=O)OCc2ccccc2)on1 (stereo not given) | inconclusive [cytotoxic, single point] | 
40 | CC1CCCN(CC(=O)Nc2cc(S(=O)(=O)N3CCOCC3)ccc2N2CCCC2)C1 (stereo not given) | inactive | 
41 | Cc1ccc(S(=O)(=O)N2CCCCC2)cc1C(=O)OC(C)C(=O)NC1CCCCC1C (stereo not given) | inactive | 
42 | Cc1nc(N)sc1-c1csc(Nc2cccc(O)c2)n1 | inactive | 
43 | Fc1cccc(Cc2c(-c3ccco3)nc3c(Cl)cc(C(F)(F)F)cn23)c1 | inconclusive [cytotoxic, single point] | 
44 | O=S(=O)(Nc1cccc(CO)c1)c1cccs1 | inactive | 
45 | O=S(=O)(c1ccc(Cl)cc1)N1CCN(Cc2ccc(O)c3ncccc23)CC1 | inconclusive [cytotoxic, partial curve, poor fit] | 
